Measurements taken from PubChem BioAssay AID1460 (National Center for Advancing Translational Sciences (NCATS), 2008).
Several values for one entry are separate records, joined by “and”; a condition that tells them apart may be missing. Equal entries are not always repeated. The whole screen tested about 270,000 compounds, of which about 5,800 (2.1%) were called active. The shares of active, inactive and inconclusive entries below differ from those in the screen. Calls follow the shape of the dose curve; as a rule, active = well fitted inhibition curve with a large enough effect; inconclusive = small, poorly fitted or top-dose-only effect; inactive = flat fitted curve, though single readings scatter. A potency beside an inconclusive call is a rough fit, not a confirmed value.

Target: Microtubule-associated protein tau (Homo sapiens) (UniProt P10636)
Assay: qHTS for Inhibitors of Tau Fibril Formation, Thioflavin T Binding; also: nearly all actives have a fitted effect of over 55% in size
Details: recombinant tau K18 P301L (four-repeat tau fragment), heparin-induced fibrillization, ThT fluorescence; series mostly up to 57.4 µM
Method in brief: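 Aggregation was driven by heparin (20 uM final) acting on recombinant tau […] bearing P301L in 100 mM sodium acetate pH 7; fibrils were detected with Thioflavin T.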
Potency is read from the fitted curve at half-maximal effect; tags tell the direction and shape of the fitted curve.

UniProt P10636, sequence (P10636 whole entry, looked up): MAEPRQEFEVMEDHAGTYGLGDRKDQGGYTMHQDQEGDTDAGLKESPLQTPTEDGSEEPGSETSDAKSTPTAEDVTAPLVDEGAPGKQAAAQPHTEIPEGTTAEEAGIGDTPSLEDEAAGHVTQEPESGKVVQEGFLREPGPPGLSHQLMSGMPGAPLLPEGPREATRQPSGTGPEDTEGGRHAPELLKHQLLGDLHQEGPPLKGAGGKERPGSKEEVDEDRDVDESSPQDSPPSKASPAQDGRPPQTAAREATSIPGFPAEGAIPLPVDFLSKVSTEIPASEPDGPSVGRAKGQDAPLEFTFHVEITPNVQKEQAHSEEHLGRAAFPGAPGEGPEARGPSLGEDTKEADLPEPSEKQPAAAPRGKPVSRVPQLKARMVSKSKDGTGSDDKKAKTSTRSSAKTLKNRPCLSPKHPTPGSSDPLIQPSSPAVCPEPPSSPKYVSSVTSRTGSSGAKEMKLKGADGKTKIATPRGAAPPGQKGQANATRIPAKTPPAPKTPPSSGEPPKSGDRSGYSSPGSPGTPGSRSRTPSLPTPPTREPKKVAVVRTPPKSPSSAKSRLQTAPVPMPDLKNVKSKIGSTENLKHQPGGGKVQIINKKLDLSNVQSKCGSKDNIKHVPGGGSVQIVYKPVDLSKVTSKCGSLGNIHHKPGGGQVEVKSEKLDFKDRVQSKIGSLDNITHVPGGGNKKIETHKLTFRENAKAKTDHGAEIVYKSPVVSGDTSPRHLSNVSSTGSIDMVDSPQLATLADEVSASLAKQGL

SMILES | Potency
COc1cc(NC(=O)NCCn2nnc3cc(S(=O)(=O)N(C)C)ccc32)cc(OC)c1 | inactive
CNC(=S)N1CCC(NC(=O)C23CC4CC(CC(C4)C2)C3)CC1 | inactive
O=C1NN=C(c2ccc(Cl)cc2)CC1c1cccc(Cl)c1 (centres undefined) | inactive
Cc1nc2nc(-c3ccccc3)cn2nc1C | inconclusive: 14.1 µM [inhibitor, partial curve]
CC(C)(C)Cc1nnc(NS(=O)(=O)c2ccc(F)cc2)s1 | inactive
c1ccc(-c2nc3cc4ccccc4cc3[nH]2)nc1 | inconclusive: 39.8 µM [activator, single point]
CCc1ccc2oc(-c3cc(N)cc(C)c3O)nc2c1 | inconclusive: 3.55 µM [inhibitor, partial curve]
CCN(CC)c1ccc(/C=N/n2c(C)cc(C)cc2=O)cc1 | inconclusive: 31.6 µM [inhibitor, partial curve]
COc1ccc(C(=O)Nc2nnc(S(=O)(=O)N(CC(C)C)c3ccccc3)s2)cc1 | inconclusive: 3.55 µM [inhibitor, partial curve]
O=C(/C=C/c1ccc(Cl)cc1Cl)N1CCN(c2ccc([N+](=O)[O-])c(N3CCOCC3)c2)CC1 | inactive
Cc1nn(-c2ccccc2)c(C)c1-c1nnc(-c2c(C)nn(-c3ccccc3)c2C)o1 | inconclusive: 3.98 µM [inhibitor, full curve, poor fit]
CCCn1c(N/N=C(C)\C=C\c2ccccc2)nc2c1c(=O)[nH]c(=O)n2C | inconclusive: 28.2 µM [inhibitor, partial curve]
Cc1ccc(CC(=O)NCC(C)C)cc1 | inactive
Cc1ccc(C)c(N=C2NC(=O)CS2)c1 | inactive
COc1ccccc1/C=N/NC(=O)CC(=O)NCc1ccccc1 | inactive
CC(C)Oc1ccc(/C=C(\NC(=O)/C=C/c2ccco2)C(=O)NCCc2nc3ccccc3[nH]2)cc1 | inconclusive: 11.2 µM [inhibitor, partial curve]
CCNC(=S)N=Nc1c(O)[nH]c2ccc([N+](=O)[O-])cc12 | inconclusive: 12.6 µM [inhibitor, partial curve]
COc1cccc(/C=N/NC(=O)CNC(=O)COc2cccc(C)c2)c1O | inconclusive: 0.447 µM [inhibitor, full curve, poor fit]
CC1(C)CC2(C)Nc3ccccc3N2C(=S)N1 (centres undefined) | inconclusive: 0.447 µM [inhibitor, single point]
Cc1ccc(Cl)cc1N1CCN(C(=O)c2cccn2-c2nnc(N3CCCC3)s2)CC1 | inactive
O=C(/C=C/c1ccccc1)CC(=O)c1ccccc1O | active: 12.6 µM
COc1ccc2cc(-c3[nH]ncc3CN3C[C@@H]4CCC[C@H]3C4)ccc2c1 | inconclusive: 39.8 µM [inhibitor, single point]
COc1cc(/C=N/Nc2ccc(C)cc2)cc(Br)c1O | inconclusive: 12.6 µM [inhibitor, partial curve]

SMILES | Potency
O=C(Nc1ccc(-c2nc3cccnc3s2)cc1)c1ccco1 | inconclusive: 39.8 µM [activator, single point]
C/C(CCN1CCCCc2nc(C)c(C)cc21)=N\O[C@@H](C)CN1CCCCc2nc(C)c(C)cc21 | inconclusive: 28.2 µM [inhibitor, partial curve] and inconclusive: 3.55 µM [inhibitor, partial curve]
CC1=C(C(N)=O)C(c2ccc(F)cc2)n2nc(-c3ccc(N(C)C)cc3)nc2N1 (centres undefined) | inconclusive: 17.8 µM [inhibitor, partial curve]
COc1ccc(/C=C(\C#N)C(=O)Nc2cc(S(=O)(=O)N3CCOCC3)ccc2N2CCCC2)cc1 | inconclusive: 12.6 µM [inhibitor, partial curve]
Cc1cccc(NC(=O)C(Cc2ccccc2)n2cccc2)c1C (centres undefined) | inconclusive: 15.8 µM [inhibitor, partial curve]
CCOc1ccc(NC(=O)c2cc3c(s2)-c2ccccc2OC3)cc1 | inconclusive: 0.562 µM [inhibitor, full curve, poor fit]
O=C(CSc1nc2ncc(Br)cc2[nH]1)c1cccc([N+](=O)[O-])c1 | inconclusive: 15.8 µM [inhibitor, partial curve]
COc1cccc(C2=NOC(C(=O)Nc3cc(C)nn3-c3ccccc3)C2)c1OC (centres undefined) | inactive
O=C(Nc1nnc(S(=O)(=O)N2CCCCCC2)s1)c1ccccc1Cl | inconclusive: 11.2 µM [inhibitor, partial curve]
COc1cc(OC)c(NC(=O)N2CCc3c(sc4c3CCCC4)C2c2ccccc2)cc1Cl (centres undefined) | inactive
O=C(c1cc2ccccc2c(=O)o1)N1CCCCCC1 | inactive
CC(C)Cn1c(SCC(=O)N2CCN(C(=O)c3ccco3)CC2)nc2ccccc2c1=O | inactive
CCOC(=O)c1c(NC(=O)c2cnn3c2NC(c2cccc(OC)c2)CC3C(F)(F)F)sc2c1CCCC2 (centres undefined) | inactive
COc1ccc2cc3c(N)c(C(=O)NCc4ccco4)sc3nc2c1 | active: 2.82 µM
Cc1nc(-c2ccccc2)sc1CCNC(=O)C(=O)Nc1ccc2c(c1)OCCO2 | inconclusive: 1.41 µM [inhibitor, full curve]
CCN(CC)S(=O)(=O)c1ccc(N=Nc2c(N)[nH]c(=O)[nH]c2=O)cc1 | inconclusive: 22.4 µM [inhibitor, partial curve]
COC(=O)C1(Cc2ccc(O)cc2)OC(=O)C(O)=C1c1ccc(O)cc1 (centres undefined) | inconclusive: 12.6 µM [inhibitor, partial curve, poor fit]
CCCc1ccc(OCC(=O)Nc2sc3c(c2C(=O)OC)CCCCC3)cc1 | inconclusive: 31.6 µM [inhibitor, single point]
COc1ccc(NC(=O)c2ccc3c(=O)n(-c4ccc(OC)cc4OC)c(=S)[nH]c3c2)cc1 | inactive
COC(=O)N1[C@H](C)C=C[C@]1(Cc1ccccc1)C(=O)NCc1ccc(N(C)C)cc1 | inactive
CCOC(=O)c1cc2c(=O)n3ccccc3nc2n(CC(C)C)c1=NC(=O)c1ccco1 | inconclusive: 20 µM [inhibitor, partial curve]
CC(C)(C)c1ccc(/C([O-])=C(/C(=S)NCc2ccco2)[n+]2ccccc2)cc1 | inconclusive: 14.1 µM [inhibitor, partial curve]
COc1ccc(NC(=O)C(C)n2nnc3sc(-c4ccccc4)cc3c2=O)cc1Cl (centres undefined) | active: 14.1 µM

SMILES | Potency
CC(C)c1cccc2nc3c(c([Si](C)(C)C(C)(C)C)c12)Cn1c-3cccc1=O | inactive
COc1ccccc1NC(=O)COc1ccc(/C=N/n2cnnc2)cc1OC | inconclusive: 3.98 µM [inhibitor, partial curve]
O=C(CSc1nnc(COc2cccc3cccnc23)o1)N1CCN(C(=O)c2ccco2)CC1 | inconclusive: 15.8 µM [inhibitor, partial curve]
COc1ccc(CNC(=O)CSc2nnnn2-c2ccccc2)cc1 | inactive
CCn1c(O)c(/C=C/C=C/C=Nc2ccccc2)sc1=S | inconclusive: 2.24 µM [inhibitor, full curve]
COc1ccc(C2=NO[C@@H]3C(=O)N(c4ccc5c(c4)OCCO5)C(=O)[C@H]23)cc1OC | inconclusive: 31.6 µM [inhibitor, partial curve]
Clc1ccc(N=c2ssnc2Cl)nc1 | inactive
Cc1nonc1OCCN1CCN(c2ccc([N+](=O)[O-])cc2)CC1 | inconclusive: 5.62 µM [inhibitor, partial curve]
CCc1nc2ccc(C(=O)NCc3ccco3)cc2nc1CC | inconclusive: 31.6 µM [inhibitor, single point]
O=C1CC(/C=C/c2cccnc2)=Nc2ccccc2N1 | inconclusive: 44.7 µM [inhibitor, single point]
COc1ccc(CCNc2ncnc3[nH]ncc23)cc1OC | inconclusive: 10 µM [inhibitor, partial curve]
COc1ccc(Nc2nc(N3CCCC3)nc3ccccc23)c(OC)c1 | inconclusive: 25.1 µM [inhibitor, partial curve]
CCN(CC)C(=O)Oc1ccc2ccccc2c1Br | inconclusive: 14.1 µM [inhibitor, partial curve, poor fit]
Cc1cccc(-c2nc(CSCC(=O)N3CCN(c4ccccc4)CC3)c(C)o2)c1 | inconclusive: 12.6 µM [inhibitor, partial curve]
COc1cccc(CNCCc2c[nH]c3ccccc23)c1OCc1ccccc1 | inconclusive: 25.1 µM [inhibitor, single point]
Cc1ccc(-c2nnc(Sc3nc4ccccc4o3)c3ccccc23)cc1 | inconclusive: 14.1 µM [inhibitor, partial curve]
CCOC(=O)c1cccc(NC(=O)N2CC(CC)Sc3ccccc32)c1 (centres undefined) | inactive
CC1CCCN(Cc2nc3c(c(=O)n(C)c(=O)n3C)n2Cc2ccc(Cl)cc2Cl)C1 (centres undefined) | inactive
CC(C)(C)C1CCc2c(sc(NC(=O)CCC(=O)O)c2C(=O)Nc2ccccc2C(F)(F)F)C1 (centres undefined) | inconclusive: 31.6 µM [inhibitor, single point]
CCCCC(=O)Nc1ccc(NC(=S)NC(=O)c2ccco2)cc1OC | inconclusive: 20 µM [inhibitor, partial curve, poor fit]
Cc1[nH]oc(=O)c1N=Nc1c(Cl)cccc1Cl | inconclusive: 35.5 µM [inhibitor, single point]
O=C(Nc1cccc(-c2nc3ccccc3s2)c1)C1=COCCO1 | inconclusive: 3.98 µM [inhibitor, single point]
CCCc1cc(=O)oc2cc(C)c3c(-c4cccc(OC)c4)coc3c12 | inconclusive: 15.8 µM [inhibitor, partial curve]
